Assay results published in the supplement of paper PMC8728848.
The other results are listed elsewhere or left out.

How the values were obtained:
Experiment in all cases: glycan array binding signal (z-score within array); higher = stronger binding
Conditions in all cases: glycan notation: IUPAC condensed, linker removed
[1] = target: Gal(b1-4)GlcNAc(b1-3)Gal(b1-4)GlcNAc(b1-3)Gal(b1-4)GlcNAc(b1-3)Gal(b1-4)GlcNAc(b1-2)Man(a1-3)[Gal(b1-4)GlcNAc(b1-3)Gal(b1-4)GlcNAc(b1-3)Gal(b1-4)GlcNAc(b1-3)Gal(b1-4)GlcNAc(b1-2)Man(a1-6)]Man(b1-4)GlcNAc(b1-4)GlcNAc
Summary of the method: (§1)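 Negative Z-scores can be read as non-binding. The Z-score is calculated within each array and then averaged across arrays of one protein sequence at different concentrations or buffers and across linkers. Arrays, 3228 in all, were curated from the Consortium for Functional Glycomics database and kept only where the protein sequence was available.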

[2] = target: Gal(b1-4)GlcNAc(b1-3)Gal(b1-4)GlcNAc(b1-3)Gal(b1-4)GlcNAc(b1-3)Gal(b1-4)GlcNAc(b1-2)Man(a1-3)[Gal(b1-4)GlcNAc(b1-3)Gal(b1-4)GlcNAc(b1-3)Gal(b1-4)GlcNAc(b1-3)Gal(b1-4)GlcNAc(b1-2)Man(a1-6)]Man(b1-4)GlcNAc(b1-4)[Fuc(a1-6)]GlcNAc
Summary of the method: as §1

[3] = target: Gal(b1-4)GlcNAc(b1-3)Gal(b1-4)GlcNAc(b1-3)Gal(b1-4)GlcNAc(b1-3)Gal(b1-4)GlcNAc(b1-2)[Gal(b1-4)GlcNAc(b1-3)Gal(b1-4)GlcNAc(b1-3)Gal(b1-4)GlcNAc(b1-3)Gal(b1-4)GlcNAc(b1-6)]Man(a1-6)[Gal(b1-4)GlcNAc(b1-3)Gal(b1-4)GlcNAc(b1-3)Gal(b1-4)GlcNAc(b1-3)Gal(b1-4)GlcNAc(b1-2)Man(a1-3)]Man(b1-4)GlcNAc(b1-4)[Fuc(a1-6)]GlcNAc
Summary of the method: as §1

[4] = target: Gal(b1-4)GlcNAc(b1-3)Gal(b1-4)GlcNAc(b1-3)Gal(b1-4)GlcNAc(b1-3)Gal(b1-4)GlcNAc(b1-3)Gal(b1-4)GlcNAc(b1-2)Man(a1-3)[Gal(b1-4)GlcNAc(b1-3)Gal(b1-4)GlcNAc(b1-3)Gal(b1-4)GlcNAc(b1-3)Gal(b1-4)GlcNAc(b1-3)Gal(b1-4)GlcNAc(b1-2)Man(a1-6)]Man(b1-4)GlcNAc(b1-4)GlcNAc
Summary of the method: as §1

[5] = target: Gal(b1-4)GlcNAc(b1-3)Gal(b1-4)GlcNAc(b1-3)Gal(b1-4)GlcNAc(b1-3)Gal(b1-4)GlcNAc(b1-3)Gal(b1-4)GlcNAc(b1-2)Man(a1-3)[Gal(b1-4)GlcNAc(b1-3)Gal(b1-4)GlcNAc(b1-3)Gal(b1-4)GlcNAc(b1-3)Gal(b1-4)GlcNAc(b1-3)Gal(b1-4)GlcNAc(b1-2)Man(a1-6)]Man(b1-4)GlcNAc(b1-4)[Fuc(a1-6)]GlcNAc
Summary of the method: as §1

[6] = target: Gal(b1-4)GlcNAc(b1-3)Gal(b1-4)GlcNAc(b1-3)Gal(b1-4)GlcNAc(b1-3)Gal(b1-4)GlcNAc(b1-3)Gal(b1-4)GlcNAc(b1-2)[Gal(b1-4)GlcNAc(b1-3)Gal(b1-4)GlcNAc(b1-3)Gal(b1-4)GlcNAc(b1-3)Gal(b1-4)GlcNAc(b1-3)Gal(b1-4)GlcNAc(b1-6)]Man(a1-6)[Gal(b1-4)GlcNAc(b1-3)Gal(b1-4)GlcNAc(b1-3)Gal(b1-4)GlcNAc(b1-3)Gal(b1-4)GlcNAc(b1-3)Gal(b1-4)GlcNAc(b1-2)Man(a1-3)]Man(b1-4)GlcNAc(b1-4)[Fuc(a1-6)]GlcNAc
Summary of the method: as §1

[7] = target: Gal(b1-4)GlcNAc(b1-3)Gal(b1-4)GlcNAc(b1-3)Gal(b1-4)GlcNAc(b1-3)Gal(b1-4)GlcNAc(b1-3)Gal(b1-4)GlcNAc(b1-3)Gal(b1-4)GlcNAc(b1-2)Man(a1-3)[Gal(b1-4)GlcNAc(b1-3)Gal(b1-4)GlcNAc(b1-3)Gal(b1-4)GlcNAc(b1-3)Gal(b1-4)GlcNAc(b1-3)Gal(b1-4)GlcNAc(b1-3)Gal(b1-4)GlcNAc(b1-2)Man(a1-6)]Man(b1-4)GlcNAc(b1-4)GlcNAc
Summary of the method: as §1

[8] = target: Gal(b1-4)GlcNAc(b1-3)Gal(b1-4)GlcNAc(b1-3)GalNAc
Summary of the method: as §1

[9] = target: Gal(b1-4)GlcNAc(b1-3)Gal(b1-4)GlcNAc(b1-3)[Gal(b1-4)GlcNAc(b1-3)Gal(b1-4)GlcNAc(b1-6)]GalNAc
Summary of the method: as §1

[10] = target: Gal(b1-4)GlcNAc(b1-3)Gal(b1-4)GlcNAc(b1-6)[Gal(b1-3)]GalNAc
Summary of the method: as §1

[11] = target: Gal(b1-4)GlcNAc(b1-3)Gal(b1-4)[Fuc(a1-3)GlcNAc(b1-6)]Gal(b1-4)Glc
Summary of the method: as §1

[12] = target: Gal(b1-4)GlcNAc(b1-3)Gal(b1-4)[Fuc(a1-3)]GlcNAc(b1-3)Gal(b1-4)[Fuc(a1-3)]GlcNAc
Summary of the method: as §1

[13] = target: Gal(b1-4)GlcNAc(b1-3)GalNAc
Summary of the method: as §1

[14] = target: Gal(b1-4)GlcNAc(b1-3)[Fuc(a1-3)GlcNAc(b1-6)]Gal(b1-4)Glc
Summary of the method: as §1

[15] = target: Gal(b1-4)GlcNAc(b1-3)[Gal(b1-4)GlcNAc(b1-6)]Gal(b1-4)GlcNAc
Summary of the method: as §1

[16] = target: Gal(b1-4)GlcNAc(b1-3)[Gal(b1-4)GlcNAc(b1-6)]GalNAc
Summary of the method: as §1

[17] = target: Gal(b1-4)GlcNAc(b1-3)[GlcNAc(b1-6)]Gal(b1-4)GlcNAc
Summary of the method: as §1

[18] = target: Gal(b1-4)GlcNAc(b1-6)Gal(b1-4)GlcNAc
Summary of the method: as §1

[19] = target: Gal(b1-4)GlcNAc(b1-6)GalNAc
Summary of the method: as §1

[20] = target: Gal(b1-4)GlcNAc(b1-6)[Gal(b1-3)]GalNAc
Summary of the method: as §1

[21] = target: Gal(b1-4)GlcNAc(b1-6)[Gal(b1-4)GlcNAc(b1-3)]GalNAc
Summary of the method: as §1

Gal(b1-4)GlcNAc6P = target: Gal(b1-4)GlcNAc6P
Summary of the method: as §1

Gal(b1-6)Gal = target: Gal(b1-6)Gal
Summary of the method: as §1

B1: OrysaEULS2 (Oryza sativa) (protein)
chain: MVYCRANPNYAMTARNGAVVLAPANPKDEYQHWIKDMRWSTSIKDEEGYPAFALVNKATGQAIKHSLGQSHPVRLVPYNPEVMDESVLWTESRDVGNGFRCIRMVNNIYLNFDAFHGDKYHGGVRDGTDIVLWKWCEGDNQRWKIQPYYILEQKLISEEDLNSAVDHHHHHH
[1]
  glycan array binding signal (z-score): 0.354
[2]
  glycan array binding signal (z-score): -0.068
[3]
  glycan array binding signal (z-score): -0.035
[4]
  glycan array binding signal (z-score): 0.101
[5]
  glycan array binding signal (z-score): -0.038
[6]
  glycan array binding signal (z-score): -0.086
[7]
  glycan array binding signal (z-score): 0.291
[8]
  glycan array binding signal (z-score): -0.221
[9]
  glycan array binding signal (z-score): -0.218
[10]
  glycan array binding signal (z-score): -0.172
[11]
  glycan array binding signal (z-score): -0.175
[12]
  glycan array binding signal (z-score): -0.192
[13]
  glycan array binding signal (z-score): -0.186
[14]
  glycan array binding signal (z-score): -0.291
[15]
  glycan array binding signal (z-score): -0.203
[16]
  glycan array binding signal (z-score): -0.183
[17]
  glycan array binding signal (z-score): -0.194
[18]
  glycan array binding signal (z-score): -0.208
[19]
  glycan array binding signal (z-score): -0.2
[20]
  glycan array binding signal (z-score): -0.206
[21]
  glycan array binding signal (z-score): -0.199
Gal(b1-4)GlcNAc6P
  glycan array binding signal (z-score): -0.189
Gal(b1-6)Gal
  glycan array binding signal (z-score): -0.21
